# Experimental data taken from paper PMC6919601, “Identification of Plasmodium dipeptidyl aminopeptidase allosteric inhibitors by high throughput screening” (PLoS ONE, 2019).
# The campaign covered roughly 110,000 compounds. About 230 (0.21%) showed an effect of 50% or more. This is one part of the list.
# Target: DPAP1 (Plasmodium falciparum, UniProt Q8IIJ9)
# Test: primary screen, percent inhibition; read by cleavage of a fluorogenic dipeptide substrate; higher = more effect of the substance
# Parameters: species or system P. falciparum D10 trophozoite lysates; single well
# 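Note: 30 min substrate incubation versus DMSO and 10 µM JCP410 controls.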
# DPAP1, sequence (Q8IIJ9 whole entry, looked up): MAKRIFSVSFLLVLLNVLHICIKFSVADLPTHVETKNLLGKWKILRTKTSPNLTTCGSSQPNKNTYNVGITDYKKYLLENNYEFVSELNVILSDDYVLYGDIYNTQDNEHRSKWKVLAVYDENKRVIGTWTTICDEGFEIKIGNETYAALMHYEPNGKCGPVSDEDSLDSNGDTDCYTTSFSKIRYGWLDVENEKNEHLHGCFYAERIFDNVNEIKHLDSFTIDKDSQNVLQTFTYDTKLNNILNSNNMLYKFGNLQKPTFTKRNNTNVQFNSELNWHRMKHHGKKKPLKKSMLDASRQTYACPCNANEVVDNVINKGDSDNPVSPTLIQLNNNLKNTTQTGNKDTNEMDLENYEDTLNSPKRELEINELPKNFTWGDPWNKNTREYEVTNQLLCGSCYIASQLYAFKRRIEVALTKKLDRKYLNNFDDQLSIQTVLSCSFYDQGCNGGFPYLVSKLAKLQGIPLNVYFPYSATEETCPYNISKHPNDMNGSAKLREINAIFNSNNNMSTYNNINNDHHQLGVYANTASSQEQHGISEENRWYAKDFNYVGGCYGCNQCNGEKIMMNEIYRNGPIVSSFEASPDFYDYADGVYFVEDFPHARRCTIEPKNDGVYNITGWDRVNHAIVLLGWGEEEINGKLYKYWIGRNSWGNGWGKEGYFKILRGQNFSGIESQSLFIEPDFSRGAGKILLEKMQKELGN
row,SMILES,% Inhibition @ 10 uM [%]
1,O=C(Nc1cccc(C(=O)Nc2cccc(Cl)c2)c1)NC1(c2ccccc2)CC1,3.53
2,CCN(CC)CCOC(=O)COc1ccc(Cl)cc1,-2.72
3,CCCN(CCC)CCCNC(=O)c1cc(O)nc2ccc(S(=O)(=O)N3CCC(C)CC3)cc12,1.16
4,COc1cc(Br)cc2c1OC1(C=C2)c2ccccc2-c2ccccc2N1C (stereo not drawn),-7.87
5,O=S(=O)(c1cccc2nsnc12)N1CCN(C23CC4CC(CC(C4)C2)C3)CC1,-3.41
6,Cc1ccc2c(Cl)c(C(=O)NCC(c3ccco3)N(C)C)sc2c1 (stereo not drawn),9.21
7,Cc1cc(C)c2c(n1)SCC(=O)N2CC(=O)NCc1ccc2c(c1)OCO2,-0.637
8,CN1CCN(CC(=O)N2c3ccccc3Sc3ccc(Cl)cc32)CC1,-9.52
9,O=C(O)CCC(C(=O)O)N1C(=O)c2cc(Cl)c(Cl)cc2C1=O (stereo not drawn),-2.87
10,COC(=O)c1c(-c2ccc(C)c(C)c2)csc1NC(=O)C1CC=CCC1C(=O)O (stereo not drawn),-1.1
11,CC1=Nc2c(ccc3cccnc23)C1(C)C,3.16
12,CC(=O)N1c2ccccc2C(C)=CC1(C)C,-0.771
13,Clc1ccc(N2CC(c3ccccc3)C(c3cccs3)=N2)cc1 (stereo not drawn),2.41
14,c1ccc(CCN2CCC(N3CCOCC3)CC2)cc1,-5.2
15,COc1ccc(CN2C(=O)c3oc4ccc(C)cc4c(=O)c3C2c2ccc(O)c(OC)c2)cc1 (stereo not drawn),0.415
16,Cc1c(C(=O)N(C)Cc2ccccc2)oc2ccc(S(=O)(=O)N3CC(C)CC(C)C3)cc12 (stereo not drawn),-1.73
17,CCc1ccccc1NC(=O)C(c1ccccc1)c1ccccc1,0.317
18,COC(=O)c1c(SC)nc2ccccc2c1OCc1ccccc1F,-1.2
19,CCN(C(=O)Cc1ccc(OC)cc1)c1nc(-c2ccccc2)cs1,0.675
20,CCN(CC)c1ncnc2c1ncn2Cc1c(Cl)cccc1Cl,3.6
21,O=c1c2c(nc(SCc3ccccc3)n1Cc1ccccc1)-c1ccccc1CC21CCCC1,0.67

row,SMILES,% Inhibition @ 10 uM [%]
1,CC(C)NCC(O)COCc1ccc(Cl)cc1 (stereo not drawn),2.58
2,CCCCCC(=O)Nc1sc2c(c1C(N)=O)CCCCCC2,-5
3,COc1ccc(NC(=O)CC(c2ccccc2)c2ccccc2O)cc1 (stereo not drawn),1.02
4,Cc1cccc(Cn2c(SCc3ccc(C(=O)NCc4ccccn4)cc3)nc3ccncc32)c1,-2.37
5,CCSC1=C(C#N)C2(CCCCC2)C(C#N)C(=O)N1 (stereo not drawn),0.937
6,CC(C)C[C@H](NC(=O)c1ccoc1)C(=O)NCC#N,-3.04
7,O=C(/C=C/c1cccs1)c1ccncc1,-4.94
8,O=C1C2C3C=CC(C3)C2C(=O)N1c1ccc(Cl)c(F)c1 (stereo not drawn),-5.34
9,COc1ccc(C(=O)Nc2ccc(S(=O)(=O)Nc3nccnc3OC)cc2)cc1,-1.76
10,COc1ccc(N2C(=O)c3ccc(C)cc3C2=O)cc1OC,5.04
11,O=C1C(Cl)=C(N2CCN(S(=O)(=O)c3ccc(Cl)c(Cl)c3)CC2)C(=O)c2ccccc21,0.279
12,CC(C)(O)C#C/C=C(\Sc1ccccc1)C(C)(C)O,0.826
13,Fc1cccc(Cl)c1Cn1cnc2ccccc21,-4.6
14,O=C(c1cc2ncc(Br)cn2n1)N1CCOCC1,-4.15
15,Cc1c(-c2ccc(F)cc2)[n+]([O-])c2c([n+]1[O-])CCCC2,-5.28
16,CC1CCc2nc(SCC(=O)Nc3ccccc3)c(C#N)cc2C1 (stereo not drawn),-2.68
17,CCO/C(O)=C(\C#N)c1cc(C)nc(-c2ccccc2O)n1,4.03
18,CCOc1ccc(CCNC(=O)Nc2cn(CC(C)C)c(=O)c3ccccc23)cc1,-6.33
19,CC(C)(C)c1ccc(C(=O)Nc2ccc(S(=O)(=O)Nc3nccs3)cc2)cc1,0.878
20,COc1ccc(C2=NN(CC(=O)NCCN3CCOCC3)C(=O)CC2)cc1,-1.79
21,COc1ccccc1C1CC(c2ccc(Cl)c(Cl)c2)Nc2nc(N)nn21 (stereo not drawn),-7.38

row,SMILES,% Inhibition @ 10 uM [%]
1,Cc1ccc(-c2[nH]nc3c2C(c2ccncc2)C(C#N)=C(N)O3)cc1 (stereo not drawn),-2.86
2,CCCCC1CCC(C(=O)N(Cc2cccc(OC)c2)C2CCS(=O)(=O)C2)CC1 (stereo not drawn),-3.12
3,CC(C)NC(=O)c1ccccc1NC(=O)CN1C(=O)c2ccccc2S1(=O)=O,2.95
4,COC(=O)c1ccc2c(c1)C(=O)/C(=C/c1ccc(C)cc1)O2,-1.37
5,CNC(=O)/C(C#N)=C/c1c(Oc2ccccc2Cl)nc2ccccn2c1=O,-5.11
6,CC(C)CNC(=O)C1Sc2nnc(-c3ccccc3)n2NC1c1ccccc1 (stereo not drawn),3.35
7,COCCN1C(=O)/C(=C/c2c(C)[nH]c3ccccc23)S/C1=N\c1ccccc1,10.3
8,CCCCOc1ccc(/C=C(/C#N)C(N)=S)cc1,-5.33
9,COc1nc(N)c(C#N)c(-c2ccc(N(C)C)cc2)c1C#N,1.54
10,COc1ccccc1Oc1nc2ccccn2c(=O)c1/C=C(\C#N)S(=O)(=O)c1ccccc1,2
11,Cc1ccc(CN2CCN(Cc3cccnc3)CC2)cc1,-6.27
12,COc1cc(OC)cc(C(=O)Nc2ccc(F)cc2)c1,-1.25
13,COc1cc(C2CC(=O)Nc3cc(C)c(C)cc32)cc(OC)c1OC (stereo not drawn),-7.58
14,c1ccc(Oc2cc(-n3cccn3)nc(-c3ccccc3)n2)cc1,5.03
15,Cc1cc(C)c2c(n1)SCC(=O)N2CC(=O)NCc1cccc(Cl)c1,-6.01
16,NC(=O)c1c(NC(=O)Nc2ccc(Cl)c(Cl)c2)sc2c1CCCC2,0.661
17,Cc1cc(C)nc(NS(=O)(=O)c2ccc(NS(=O)(=O)c3ccc(F)cc3)cc2)n1,-7
18,COc1ccccc1N(CC(=O)Nc1ccccc1C)S(C)(=O)=O,-9.26
19,O=C(O)c1cc(C(=O)O)cc(N2C(=O)c3ccc([N+](=O)[O-])cc3C2=O)c1,1.64
20,CCOC(=O)C1=C(CN(Cc2ccco2)C2CCCC2)NC(=O)NC1c1ccc(Cl)cc1 (stereo not drawn),0.708
21,COc1ccc2[nH]c(SCC(=O)NCCC34CC5CC(CC(C5)C3)C4)nc2c1,9.61
